B1: CAUAAUU (DNA:RNA)
RNA: GGGAGACCGGAAUUCAGAUUGUCCCAUAAUUUUAAAUCCCGUCGUAGCCACCA
DNA 1: CAATCTGAATTCCGGTCTCCC
DNA 2: TGGTGGCTACGACGGGATT
B2: GGGAAGA (DNA:RNA)
RNA: B1 RNA with C25G, A26G, U27G, U30G, U31A
DNA 1: CAATCTGAATTCCGGTCTCCC
DNA 2: TGGTGGCTACGACGGGATT
B3: UCCGCUA (DNA:RNA)
RNA: B1 RNA with C25U, A26C, U27C, A28G, A29C, U31A
DNA 1: CAATCTGAATTCCGGTCTCCC
DNA 2: TGGTGGCTACGACGGGATT
B4: CUUGGCU (DNA:RNA)
RNA: B1 RNA with A26U, A28G, A29G, U30C
DNA 1: CAATCTGAATTCCGGTCTCCC
DNA 2: TGGTGGCTACGACGGGATT
B5: UCGGGUA (DNA:RNA)
RNA: B1 RNA with C25U, A26C, U27G, A28G, A29G, U31A
DNA 1: CAATCTGAATTCCGGTCTCCC
DNA 2: TGGTGGCTACGACGGGATT
B6: CACCGUA (DNA:RNA)
RNA: B1 RNA with U27C, A28C, A29G, U31A
DNA 1: CAATCTGAATTCCGGTCTCCC
DNA 2: TGGTGGCTACGACGGGATT
B7: AAUUAUC (DNA:RNA)
RNA: B1 RNA with C25A, A28U, U31C
DNA 1: CAATCTGAATTCCGGTCTCCC
DNA 2: TGGTGGCTACGACGGGATT
B8: UUACUUU (DNA:RNA)
RNA: B1 RNA with C25U, A26U, U27A, A28C, A29U
DNA 1: CAATCTGAATTCCGGTCTCCC
DNA 2: TGGTGGCTACGACGGGATT
B9: CAGGAGA (DNA:RNA)
RNA: B1 RNA with U27G, A28G, U30G, U31A
DNA 1: CAATCTGAATTCCGGTCTCCC
DNA 2: TGGTGGCTACGACGGGATT

Substitutions are numbered along the chain they refer to; changes in the protein carry UniProt numbers. The list shows a part of the results.

The test concerns the target T1, RBFOX1 RRM RbFoxmut (Fox-RRM*) (Homo sapiens, UniProt Q9NWB1 109-208, R118D;E147R;N151S;E152T).
T1 sequence: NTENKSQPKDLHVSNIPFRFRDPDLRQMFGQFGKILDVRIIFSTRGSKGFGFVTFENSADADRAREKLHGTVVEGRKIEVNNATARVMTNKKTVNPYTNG
Nature of the test: EMSA; HiTS-Eq, 1 nM pool, 10 min; buffer printed only for the single-RNA assays: 10 mM Tris pH 7.5, 150 mM NaCl, 3.4 mM EDTA, 0.001% NP-40, 30 C. The note with it: tags: His6 N-terminal (pET28a); label: 5' 32P. In a few lines: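 A pool of RNA with 7 randomized nucleotides, 5′-radiolabelled and with DNA-annealed flanks, was equilibrated at 1 nM for 10 min in 50 µL with purified RbFox RRM, wild type or mutant, across increasing protein concentrations. Free RNA was separated by 8% native PAGE, excised, reverse-transcribed, barcoded by PCR and sequenced. Relative association constants were obtained from read-count changes of each RNA species versus the control reaction and normalised to the cognate motif.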
A general note: A gel shift assay detects complexes by their altered migration in electrophoresis.
Regarding B1, the binding signal is 0.0899 KA relative to UGCAUGU. With B2 the figure was 0.0814 KA relative to UGCAUGU; with B3, 0.0757 KA relative to UGCAUGU. On to B4, for which the binding signal was 0.102 KA relative to UGCAUGU. In the case of B5 it was 0.139 KA relative to UGCAUGU; in that of B6, 0.103 KA relative to UGCAUGU; in that of B7, 0.0838 KA relative to UGCAUGU. In the case of B8 it was 0.0818 KA relative to UGCAUGU; in that of B9, 0.0858 KA relative to UGCAUGU.
